Data reported in publication PMC5049798.
These are yes or no findings as the source states them, for the method shown. Binding seen in cells or lysates may run through a third protein. Some results given as binding are weak or reduced against the parent protein; the word gives no strength. For some of these results: Tags and fused reporters may be left off the sequences shown.

Chains of the proteins cited; added tags and fusions are not shown.
UniProt P17383: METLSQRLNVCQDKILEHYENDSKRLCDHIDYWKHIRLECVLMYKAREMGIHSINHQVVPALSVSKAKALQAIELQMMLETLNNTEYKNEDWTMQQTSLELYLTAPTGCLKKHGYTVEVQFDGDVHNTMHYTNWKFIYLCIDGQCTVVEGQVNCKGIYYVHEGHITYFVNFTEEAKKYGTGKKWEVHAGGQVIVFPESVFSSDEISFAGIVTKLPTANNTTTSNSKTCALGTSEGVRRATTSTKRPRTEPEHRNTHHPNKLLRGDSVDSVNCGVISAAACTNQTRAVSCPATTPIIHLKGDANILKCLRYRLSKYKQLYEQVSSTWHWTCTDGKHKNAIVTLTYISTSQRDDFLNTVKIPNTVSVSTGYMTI

Columns and labels:
[1] = molecular target: T1, HA-tagged human ORC2 (HA-hORC2) (human) (UniProt Q13416); test: co-IP; 293TT cells co-transfected; HA antibody immunoprecipitates of HA-ORC2 blotted with HA-7/ORC2 and M2/FLAG antibodies; lysis in 1% NP-40, 50 mM NaCl, 10 mM HEPES pH 7.4, 10% glycerol, benzonase; washes with 500 mM NaCl, 0.1% SDS, 1% NP-40
T1 sequence: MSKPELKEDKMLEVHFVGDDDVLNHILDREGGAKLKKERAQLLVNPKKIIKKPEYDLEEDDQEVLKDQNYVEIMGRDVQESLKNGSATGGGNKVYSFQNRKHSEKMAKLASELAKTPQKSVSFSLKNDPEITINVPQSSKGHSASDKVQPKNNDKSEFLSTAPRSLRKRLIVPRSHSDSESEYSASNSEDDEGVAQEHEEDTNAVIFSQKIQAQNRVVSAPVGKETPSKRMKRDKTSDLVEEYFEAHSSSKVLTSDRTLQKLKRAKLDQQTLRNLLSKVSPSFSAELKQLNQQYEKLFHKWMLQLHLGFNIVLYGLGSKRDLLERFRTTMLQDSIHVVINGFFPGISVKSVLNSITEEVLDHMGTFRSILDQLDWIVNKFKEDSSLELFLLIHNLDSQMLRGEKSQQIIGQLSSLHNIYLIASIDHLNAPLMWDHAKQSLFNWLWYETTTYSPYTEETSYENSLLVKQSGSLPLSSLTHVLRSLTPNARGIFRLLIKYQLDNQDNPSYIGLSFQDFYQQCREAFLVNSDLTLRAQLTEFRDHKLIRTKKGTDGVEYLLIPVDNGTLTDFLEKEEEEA

[2] = molecular target: T2, Endogenous ORC2 (C33A cells) (human (endogenous in C33A)) (UniProt Q13416); test: proximity ligation; in-situ PLA (PLA Red kit, Olink) in transfected C33A cells, fixed 24 h after transfection in 4% paraformaldehyde; primary antibody pairs rabbit FLAG + mouse anti-human ORC2, or M2 FLAG + rabbit 16E1
T2 sequence: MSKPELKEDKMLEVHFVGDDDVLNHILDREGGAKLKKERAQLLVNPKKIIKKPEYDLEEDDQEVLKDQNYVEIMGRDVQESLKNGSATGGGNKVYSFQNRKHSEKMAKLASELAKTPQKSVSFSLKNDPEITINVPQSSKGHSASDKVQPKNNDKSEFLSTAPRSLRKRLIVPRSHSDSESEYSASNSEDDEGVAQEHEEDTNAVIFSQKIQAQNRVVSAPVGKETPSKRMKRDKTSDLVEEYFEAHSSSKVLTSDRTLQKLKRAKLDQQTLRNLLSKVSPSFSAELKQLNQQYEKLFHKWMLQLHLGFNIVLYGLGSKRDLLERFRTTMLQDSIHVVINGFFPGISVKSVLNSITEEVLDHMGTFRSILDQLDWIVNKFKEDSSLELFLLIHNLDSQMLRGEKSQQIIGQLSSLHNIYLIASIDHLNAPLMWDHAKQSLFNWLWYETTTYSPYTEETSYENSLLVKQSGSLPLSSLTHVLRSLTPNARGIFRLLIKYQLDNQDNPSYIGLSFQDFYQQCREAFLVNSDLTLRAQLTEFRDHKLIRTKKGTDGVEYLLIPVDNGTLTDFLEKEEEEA

[3] = molecular target: T1, HA-tagged human ORC2 (HA-hORC2) (human); test: as above
[4] = molecular target: BPV-1 E2 transactivation domain (TAD, aa 1-216) (bovine papillomavirus type 1 (BPV-1)) (UniProt P03122); test: co-IP; C33A cells co-transfected; BPV-1 E2 forms immunoprecipitated (II-1 or B201 antibody), blotted with B201 and M2 (FLAG); groups without full length E2 treated with 10 uM MG132 for 6 hr in Fig 1B; lysis in 1% NP-40, 50 mM NaCl, 10 mM HEPES pH 7.4, 10% glycerol, benzonase; washes with 500 mM NaCl, 0.1% SDS, 1% NP-40
[5] = molecular target: BPV-1 E2R (aa 162-410) (bovine papillomavirus type 1 (BPV-1)) (UniProt P03122); test: as above
[6] = molecular target: BPV-1 E2 (bovine papillomavirus type 1 E2 protein), full length (bovine papillomavirus type 1 (BPV-1)) (UniProt P03122); test: as above
[7] = molecular target: 6-His-BPV E2:1-216 (bovine papillomavirus type 1 (BPV-1)) (UniProt P03122); test: pull-down; High Five lysate with human ORC2 added to purified His-tagged proteins with nickel Dynabeads in 1% NP-40, 50 mM NaCl, 10 mM HEPES pH 7.4, 10% glycerol, benzonase; blotted with E2 (B201), E6 and ORC2 antibodies; only the target purified
[8] = molecular target: FLAG-HPV-31 E2 (human papillomavirus type 31 (HPV-31)) (UniProt P17383); test: proximity ligation; in-situ PLA (PLA Red kit, Olink) in transfected C33A cells, fixed 24 h after transfection in 4% paraformaldehyde; primary antibody pairs rabbit FLAG + mouse anti-human ORC2, or M2 FLAG + rabbit 16E1

## FLAG-HPV-31 E2 (from UniProt P17383 1-372)
[1]
  binding: binds
[2]
  binding: binds
[3]
  binding: binds

B1: FLAG-mouse ORC2 (protein, UniProt Q60862 1-576)
chain: MSTLQLKETKVPSVQFVGDDDVLSHILDREGGTKLKKEKAQLLVNPQKVIKKADCELEKSDLEVLEDQNYVKVLGRNIQESLGNGSAKDGRNKVYSFQQRKHPEEMTKLALELAKTSGKKDPLDSNDPEITKNIAQKSKGHSTSEKAPLVNNNKTEFLSTQPHNLRKRIIASRSHYDSESEYSASSSEDDEEATKDEEEDTNVARLSQKSQGQNRLLPAPVSKETLPKKKKRDKASDLVEEYFEAHSSSKVLTSDRTLQRLRRARVDQKTLHNLLRKFVPSFSAEIERLNQQHEKLFHKWMLQLHLGFNIVLYGLGSKRDLLEKFRTTMLQDSIHVVINGYFPGVSVKSILNSITEDVLSHVGTFQSVLDQRDWIINRFKEDSSLELFLLIHNLDSQMLRGDNSQQILGQLSSLHNVYLIASIDHLNAPLMWDHAKQSLYNWLWYETTTYSPYTEETSYENSLLVKQSGSLPLSSLIHVLRSLTPNARGIFRLLMKFQLDNQDSPSYIGLSFQDFYQQCREAFLVNSDLTLRAQLTEFRDHKLIRTKKGTDGVEYLLIPVDSGILADFLEKEEEEA
[4]
  binding: binds
[5]
  binding: no binding
[6]
  binding: binds

B2: Human ORC2 protein (baculovirus expressed) (protein, UniProt Q13416 1-577)
chain: MSKPELKEDKMLEVHFVGDDDVLNHILDREGGAKLKKERAQLLVNPKKIIKKPEYDLEEDDQEVLKDQNYVEIMGRDVQESLKNGSATGGGNKVYSFQNRKHSEKMAKLASELAKTPQKSVSFSLKNDPEITINVPQSSKGHSASDKVQPKNNDKSEFLSTAPRSLRKRLIVPRSHSDSESEYSASNSEDDEGVAQEHEEDTNAVIFSQKIQAQNRVVSAPVGKETPSKRMKRDKTSDLVEEYFEAHSSSKVLTSDRTLQKLKRAKLDQQTLRNLLSKVSPSFSAELKQLNQQYEKLFHKWMLQLHLGFNIVLYGLGSKRDLLERFRTTMLQDSIHVVINGFFPGISVKSVLNSITEEVLDHMGTFRSILDQLDWIVNKFKEDSSLELFLLIHNLDSQMLRGEKSQQIIGQLSSLHNIYLIASIDHLNAPLMWDHAKQSLFNWLWYETTTYSPYTEETSYENSLLVKQSGSLPLSSLTHVLRSLTPNARGIFRLLIKYQLDNQDNPSYIGLSFQDFYQQCREAFLVNSDLTLRAQLTEFRDHKLIRTKKGTDGVEYLLIPVDNGTLTDFLEKEEEEA
[7]
  binding: binds

B3: FLAG-mouse ORC1 (protein, UniProt Q9Z1N2 1-840)
chain: MPSYLTRQKTRQTFSWVGRPLPNRKQFQQMYREICMKINDGSEIHIKVGQFVLIQGEDNKKPYVAKLIELFQNGAEVPPKKCARVQWFVRFLEIPVSKRHLLGRSPPAQEIFWYDCSDWDNKINVETIIGPVQVVALAPEEVIPVDQKSEETLFVKLSWNKKDFAPLPPEVLAALREQEDSPEWQKPLKAKIKNVKSPARNTTEQEVKGIKSNHSTSKFHQTPANIVIPNAKKSLELDGLGFTRKPNTRWSKKSSCDSLDYQKTSKRRAAFSETTSPPKKPNKPREIKPSSALETRVKNGQTQPFCAKSSVVLRARNPAMTTTKLGVDNTLSPIRNGLRSSVVPSGGLTPVYIRRKAKEQETHKEPIRTSRVHRKSSLLTLKRIRQQLCLLDGDDRDQEEEESVDSESEEEDEFISSLPTRNSLGQSRTRQTPSKSPQKNPKPRTPHRATPQIRDRNLAVQEPASALEEARLRLHVSAVPDSLPCREQEFQDIYSFVESKLLDGTGGCMYISGVPGTGKTATVHEVIRCLQQAAETDDVPPFQYVEVNGMKLTEPHQVYVQILKKLTGQKATANHAAELLAKQFCGQGSQKETTVLLVDELDLLWTHKQDVMYNLFDWPTHKGAHLIVLTIANTMDLPERIMMNRVSSRLGLTRMSFQPYSHSQLKQILVSRLRNLRAFEDDAIQLVARKVAALSGDARRCLDICRRATEICELSHLRGDSLSLVTVAHLMEAIDEMFSSSYITAIKNSSVVEQSFLRAIIAEFRRSGLEEATFQQIYSQHVALCRMEGLPYPTMSETMAVCSRLGSCRLLLVEPSRNDLLLRVRLNVSQNDVLFALKEE
[6]
  binding: no binding

B4: HA-HPV-31 E1 (protein, UniProt P17382 1-629)
chain: MADPAGTDGEGTGCNGWFYVEAVIDRQTGDNISEDENEDSSDTGEDMVDFIDNCNVYNNQAEAETAQALFHAQEAEEHAEAVQVLKRKYVGSPLSDISSCVDYNISPRLKAICIENNSKTAKRRLFELPDSGYGNTEVETQQMVQVEEQQTTLSCNGSDGTHSERENETPTRNILQVLKTSNGKAAMLGKFKELYGVSFMELIRPFQSNKSTCTDWCVAAFGVTGTVAEGFKTLLQPYCLYCHLQSLACSWGMVMLMLVRFKCAKNRITIEKLLEKLLCISTNCMLIQPPKLRSTAAALYWYRTGMSNISDVYGETPEWIERQTVLQHSFNDTTFDLSQMVQWAYDNDVMDDSEIAYKYAQLADSDSNACAFLKSNSQAKIVKDCGTMCRHYKRAEKRQMSMGQWIKSRCDKVSDEGDWRDIVKFLRYQQIEFVSFLSALKLFLKGVPKKNCILIHGAPNTGKSYFGMSLISFLQGCIISYANSKSHFWLQPLADAKIGMLDDATTPCWHYIDNYLRNALDGNPVSIDVKHKALMQLKCPPLLITSNINAGKDDRWPYLHSRLVVFTFPNPFPFDKNGNPVYELSDKNWKSFFSRTWCRLNLHEEEDKENDGDSFSTFKCVSGQNIRTL
[8]
  binding: binds

B5: FLAG-HPV-31 E1 (codon optimized triple FLAG HPV-31 E1) (protein, UniProt P17382 1-629)
chain: MADPAGTDGEGTGCNGWFYVEAVIDRQTGDNISEDENEDSSDTGEDMVDFIDNCNVYNNQAEAETAQALFHAQEAEEHAEAVQVLKRKYVGSPLSDISSCVDYNISPRLKAICIENNSKTAKRRLFELPDSGYGNTEVETQQMVQVEEQQTTLSCNGSDGTHSERENETPTRNILQVLKTSNGKAAMLGKFKELYGVSFMELIRPFQSNKSTCTDWCVAAFGVTGTVAEGFKTLLQPYCLYCHLQSLACSWGMVMLMLVRFKCAKNRITIEKLLEKLLCISTNCMLIQPPKLRSTAAALYWYRTGMSNISDVYGETPEWIERQTVLQHSFNDTTFDLSQMVQWAYDNDVMDDSEIAYKYAQLADSDSNACAFLKSNSQAKIVKDCGTMCRHYKRAEKRQMSMGQWIKSRCDKVSDEGDWRDIVKFLRYQQIEFVSFLSALKLFLKGVPKKNCILIHGAPNTGKSYFGMSLISFLQGCIISYANSKSHFWLQPLADAKIGMLDDATTPCWHYIDNYLRNALDGNPVSIDVKHKALMQLKCPPLLITSNINAGKDDRWPYLHSRLVVFTFPNPFPFDKNGNPVYELSDKNWKSFFSRTWCRLNLHEEEDKENDGDSFSTFKCVSGQNIRTL
[1]
  binding: no binding
